# Experimental data as given in the supplement of paper PMC10600219.
# Structures can show the parent of a compound that is named as a salt. Over roughly 2,800 compounds, “cell viability relative to vehicle” has its median near 1.1; the lowest 2% begin near 0.19. The list shows a part of the results.
# Test system: NCI-H2228 parental
# Assay: cell viability relative to vehicle (fraction of vehicle); NCI-H2228 is an ALK-positive lung cancer line and DTP means drug-tolerant persister; higher = less growth inhibition
# Conditions: 100 nM; treatment time 6 days
# How it was run: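 Each value is viability relative to vehicle-treated cells, measured as ATP with the CellTiter-Glo 3D Cell Viability Assay. Parental NCI-H2228 cells and drug-tolerant persisters (1000 nM targeted drug, 13 days) in 384-well plates received the 3114-agent TargetMol anti-cancer compound library at 100 nM, or DMSO, and were read 6 days later.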
row,SMILES,cell viability
1,C=C(C)[C@@H]1CC[C@]2(CO)CC[C@]3(C)[C@H](CC[C@@H]4[C@@]5(C)CC[C@H](O)C(C)(C)[C@@H]5CC[C@]43C)[C@@H]12 [Betulin],1.04
2,COC(=O)C[C@](O)(CCCC(C)(C)O)C(=O)O[C@@H]1C(OC)=C[C@]23CCCN2CCc2cc4c(cc2[C@H]13)OCO4 [Homoharringtonine],0.162
3,C[C@@H](O)[C@H]1C(=O)N2C(C(=O)O)=C(S[C@@H]3CN[C@H](C(=O)Nc4cccc(C(=O)O)c4)C3)[C@H](C)[C@H]12 [Ertapenem sodium],1.06
4,Nc1ccc(S(=O)(=O)NC(=O)c2ccccc2)cc1 [Sulfabenzamide],0.908
5,CC(=O)c1ccc(NC2=C(Cl)C(=O)c3ccccc3C2=O)cc1,1.08
6,CC(C)c1nc(N(C)S(C)(=O)=O)nc(-c2ccc(F)cc2)c1/C=C/[C@@H](O)C[C@@H](O)CC(=O)O [Rosuvastatin],1.21
7,O=C(COc1cccc2c(=O)[nH]ccc12)c1ccccc1,1.14
8,CC(C)=CCC[C@](C)(O)[C@H]1CC[C@]2(C)[C@@H]1[C@H](O)C[C@@H]1[C@@]3(C)CC[C@H](O[C@@H]4O[C@H](CO)[C@@H](O)[C@H](O)[C@H]4O[C@@H]4O[C@H](CO)[C@@H](O)[C@H](O)[C@H]4O)C(C)(C)[C@@H]3CC[C@]12C [Ginsenoside Rg3],1.12
9,CCNC(=O)[C@H]1O[C@@H](n2cnc3c(N)nc(NCCc4ccc(CCC(=O)O)cc4)nc32)[C@H](O)[C@@H]1O,1.15
10,Cn1cc(-c2cnn3c(N)c(Br)c([C@H]4CCCNC4)nc23)cn1,0.968
11,CCN(CC)CCCC(C)Nc1ccnc2cc(Cl)ccc12 (stereo unspecified) [Chloroquine diphosphate],1.09
12,CC1=C(C(=O)Nc2ccc3[nH]ncc3c2)C(c2ccc(F)c(C(=O)NCc3ccccn3)c2)NC(=O)N1 (stereo unspecified),1.04
13,CC(C)OC(=O)C(C(=O)OC(C)C)=C1SC=CS1 [Malotilate],0.95
14,CC(C)NC(=O)COc1cccc(-c2nc(Nc3ccc4[nH]ncc4c3)c3ccccc3n2)c1,1.11
15,C[C@@H](O)[C@H]1C(=O)N2C(C(=O)O)=C(SCCNC=N)C[C@H]12 [Imipenem],1.04
16,CCOc1cc(N2CCC(O)CC2)ccc1Nc1ncc2c(n1)N(C1CCCC1)CCC(=O)N2C,1.15
17,C=C(C)[C@@H]1CC[C@]2(C(=O)O)CC[C@]3(C)[C@H](CC[C@@H]4[C@@]5(C)CC[C@H](O)C(C)(C)[C@@H]5CC[C@]43C)[C@@H]12 [Betulinic acid],1.02
18,O=c1ccc2cc3ccoc3cc2o1 [Psoralen],1.12
19,Oc1ccc2c(c1)OC[C@]1(O)Cc3cc(O)c(O)cc3[C@H]21 [Brazilin],0.94
20,CCS(=O)(=O)Nc1ccc(Oc2ccc(F)cc2F)c(-c2cn(C)c(=O)c3[nH]ccc23)c1 [Mivebresib],0.763
21,CCCCCN(C)CCC(O)(P(=O)(O)O)P(=O)(O)O [Ibandronate sodium],1.04
22,O=C(COc1c(Cl)cc(Cl)cc1Cl)N/N=C/c1ccc[nH]1,1.08
23,CONC(=O)c1ccccc1Nc1cc(Nc2cc(C)nn2C(C)C)ncc1Cl,0.962
24,COc1cc2c(c(OC)c1OC)-c1c(cc3c(c1OC)OCO3)C[C@H](C)[C@](C)(O)C2 [Gomisin A],0.967

row,SMILES,cell viability
1,OC[C@@H](O)[C@@H](O)[C@H](O)[C@H](O)CO [D-Mannitol],1.13
2,CC(=O)OCC(=O)NCCCOc1cccc(CN2CCCCC2)c1 [Roxatidine Acetate hydrochloride],1.02
3,CCCCCCCCC(=O)N[C@H](CN1CCCC1)[C@H](O)c1ccc2c(c1)OCCO2,1.1
4,CCn1cc(C(=O)O)c(=O)c2cc(F)c(N3CCNCC3)nc21 [Enoxacin],0.966
5,CCn1cc(C(=O)O)c(=O)c2cc(F)c(N3CCNCC3)nc21 [Enoxacin Sesquihydrate],1.01
6,CC(C(=O)O)c1cccc(Oc2ccccc2)c1 (stereo unspecified) [Fenoprofen calcium dihydrate],1.09
7,CC(C)[C@H](NC(=O)CCCCCN1C(=O)C=CC1=O)C(=O)N[C@@H](CCCNC(N)=O)C(=O)Nc1ccc(COC(=O)Oc2ccc([N+](=O)[O-])cc2)cc1,0.848
8,COCCOc1nc(-c2ccc(Cl)c(Cl)c2)n(-c2ccc(NC(=O)CCl)cc2)n1 [MI 2 (MALT1 inhibitor)],1.09
9,O=C1NC(=O)C(c2ccccc2[N+](=O)[O-])=C1Nc1ccc(O)c(Cl)c1,0.948
10,O=C1NC(=O)/C(=C/c2ccc3nccc(-c4ccncc4)c3c2)S1,1.11
11,C/C(=C1/C(=O)Nc2ccc(NC(N)=O)cc21)c1ccc[nH]1,1.13
12,C=CC(C)(O)CCC=C(C)CCC=C(C)C (mixture of isomers) [nerolidol],0.91
13,N#C/C(=C\c1ccc(O)c(O)c1)C(=O)Nc1ccccc1,1
14,COc1ccc([C@@H]2OC[C@H]3[C@@H]2CO[C@@H]3c2ccc(O[C@@H]3O[C@H](CO)[C@@H](O)[C@H](O)[C@H]3O)c(OC)c2)cc1OC [Forsythin],1
15,Cc1c(Cl)cccc1Nc1ccccc1C(=O)O [Tolfenamic Acid],0.939
16,CCCSc1ccc2[nH]c(NC(=O)OC)nc2c1 [Albendazole],0.85
17,CC(=O)C1=C(O)C=C2Oc3c(C(C)=O)c(O)c(C)c(O)c3C2(C)C1=O (stereo in doubt) [Usnic Acid],1.15
18,c1ccc(-c2nc(-c3ccc(-c4nc(-c5ccccc5)c(-c5ccccc5)[nH]4)cc3)[nH]c2-c2ccccc2)cc1,1.05
19,CO[C@H]1/C=C/O[C@@]2(C)Oc3c(C)c(O)c4c(O)c(c(/C=N/N5CCN(C)CC5)c(O)c4c3C2=O)NC(=O)/C(C)=C\C=C\[C@H](C)[C@H](O)[C@@H](C)[C@@H](O)[C@@H](C)[C@H](OC(C)=O)[C@@H]1C [Rifampicin],1.16
20,CC(C)Nc1cc(-c2c[nH]c(C(=O)N[C@H](CO)c3cccc(Cl)c3)c2)c(Cl)cn1 [Ulixertinib],1.09
21,Cc1ccc(N(CC2=NCCN2)c2cccc(O)c2)cc1 [Phentolamine mesilate],1.2
22,CCc1ccc(CCOc2ccc(CC3SC(=O)NC3=O)cc2)nc1 (stereo unspecified) [Pioglitazone],0.977
23,COc1c(O)cc2occ(-c3ccc(O)cc3)c(=O)c2c1O [Tectorigenin],1
24,c1ccc(CC2=NCCN2)cc1 [Tolazoline hydrochloride],1.1

row,SMILES,cell viability
1,OCCN1CCN(CCCN2c3ccccc3Sc3ccc(C(F)(F)F)cc32)CC1 [Fluphenazine hydrochloride],1.1
2,CC(C)(Oc1ccc(CCNC(=O)c2ccc(Cl)cc2)cc1)C(=O)O [Bezafibrate],1.22
3,O=C(c1cc(Cc2n[nH]c(=O)c3ccccc23)ccc1F)N1CCN(C(=O)C2CC2)CC1 [Olaparib],1.05
4,O=C(O)CCc1nc(-c2ccccc2)c(-c2ccccc2)o1 [Oxaprozin],1.11
5,CC(C(=O)O)c1ccc(CC2CCCC2=O)cc1 (stereo unspecified) [Loxoprofen],1.2
6,CC[C@H]1OC(=O)[C@H](C)[C@@H](O[C@H]2C[C@@](C)(OC)[C@@H](O)[C@H](C)O2)[C@H](C)[C@@H](O[C@@H]2O[C@H](C)C[C@H](N(C)C)[C@H]2O)[C@](C)(O)C[C@@H](C)C(=O)[C@H](C)[C@@H](O)[C@]1(C)O [Erythromycin],1.02
7,CC1=C(/C=C/C(C)=C/C=C/C(C)=C/C=C/C=C(C)/C=C/C=C(C)/C=C/C2=C(C)CCCC2(C)C)C(C)(C)CCC1 [Beta-Carotene],1.07
8,CC1(C)CCC(c2ccc(Cl)cc2)=C(CN2CCN(c3ccc(C(=O)NS(=O)(=O)c4ccc(N[C@H](CCN5CCOCC5)CSc5ccccc5)c(S(=O)(=O)C(F)(F)F)c4)cc3)CC2)C1 [Navitoclax],1.19
9,NC(=O)c1ccccc1O [Salicylamide],1.1
10,CCOC(=O)N1CCC(=C2c3ccc(Cl)cc3CCc3cccnc32)CC1 [Loratadine],0.998
11,COc1ccc(S(=O)(=O)/N=C2\C=CC=C\C2=C/C=C2C=CN(O)C=C2)cc1,0.87
12,Nc1nc(F)nc2c1ncn2[C@@H]1O[C@H](COP(=O)(O)O)[C@@H](O)[C@@H]1O [Fludarabine Phosphate],1.12
13,O=C(NOCC1CC1)c1ccc(F)c(F)c1Nc1ccc(I)cc1Cl,0.849
14,COc1ccc(-c2coc3cc(O)ccc3c2=O)cc1 [Formononetin],1.18
15,CN1CCN(S(=O)(=O)c2ccc(-c3cnc(N)c(C(=O)Nc4cccnc4)n3)cc2)CC1,1.07
16,CC(CN1CC(=O)N(CN2CCOCC2)C(=O)C1)N1CC(=O)N(CN2CCOCC2)C(=O)C1 (stereo unspecified) [Probimane],1
17,"Cc1ccc2c(c1)C(=O)C1(O)CCN(c3ccccc3)C1=N2 (single isomer, unassigned; (-)) [(-)-Blebbistatin]",1.06
18,CC(C)C[C@H](NC(=O)[C@H](Cc1ccccc1)NC(=O)c1cnccn1)B(O)O [Bortezomib],0.067
19,COc1ccc(CC(C)NCC(O)c2ccc(O)c(NC=O)c2)cc1 (stereo unspecified) [Formoterol Hemifumarate],0.986
20,COc1ccc(CC(C)NCC(O)c2ccc(O)c(NC=O)c2)cc1 (stereo unspecified) [Formoterol],1.02
21,CS(=O)(=O)c1ccc(C(=O)Nc2ccc(Cl)c(-c3ccccn3)c2)c(Cl)c1 [Vismodegib],0.933
22,CNC(=O)c1cc(Oc2ccc(NC(=O)c3cccc(C(F)(F)F)c3)cc2)ccn1,1.11
23,CC1(C)CC[C@]2(C(=O)O)CC[C@]3(C)C(=CC[C@@H]4[C@@]5(C)CCC(=O)C(C)(C)[C@@H]5CC[C@]43C)[C@@H]2C1 [Oleanonic Acid],1.12
